The source gives no read counts; variants with many changes may rest on few reads.

B1: CPEB3 Ribozyme (parent)
chain: UAACAGGGGGCCACAGCAGAAGCGUUCACGUCGCAGCCCCUGUCAGAUUCUGGUGAAUCUGCGAAUUCUGCUGUAUAUCUC

In the series the parent is B1. Description: self-cleavage, relative activity (ratio to wild type); higher = more cleavage; in vitro, sequencing. In outline:
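Relative activity was defined as the cleaved/total read fraction for a variant divided by the same fraction for the unmutated ribozyme. CPEB3 self-cleaving ribozyme libraries were made by rounds of error-prone PCR, barcoded, and transcribed in vitro with T7 RNA polymerase for 5 hours at 37°C, and cleavage ran through transcription plus a 15 min DNase I step before EDTA. Illumina sequencing of template-switched reverse transcripts gave the reads, and DNA sequencing mapped the barcodes. Averages come from three batches, using variants with at least 5 reads.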
With G9U A45G A65G G73A U74C, the self-cleavage was found to be 0.05.
With G10A U54A U60C, the self-cleavage came to 0.26.
In the case of G10A U26C U43A U72G it was 0.31; in that of G9U A15U C39A, 0.05; in that of G9A A45G U69C, 0.16.
For the variant G9A A28G U41C U48C U58C U60C U72A, the self-cleavage worked out at 0.03.
With G9A G33A G36A U41C, the self-cleavage turned out to be 0.08.
For G9U A13U G33U C50G G61A, the self-cleavage was 0.08.
For the variant C11A A28C U51A U58A U76C, the self-cleavage was determined as 0.04.
G9U A20G A35U A56U U78A: the self-cleavage came to 0.06.
For G10C A15G C17G A20G A65G A75U, the self-cleavage was found to be 0.36.
G10C A15G G24A U26C U43C U72A: the self-cleavage came out at 0.24.
In the case of G9U C32A A56G C62U U74C it was 0.14; in that of G10A A45C A64U U72C, 0.18.
As to G9A A28G G42A U51C U54C A65U A75G, the self-cleavage stood at 0.04.
Take G9U A20U A56G U69C: the self-cleavage amounted to 0.05.
In the case of G9A C38U U43A U72C A77G, the self-cleavage was determined as 1.17.
For the variant G10A A21U U25C U72A, the self-cleavage came out at 0.11.
Regarding G9C U25C U41C U48A A56U A64G, the self-cleavage is 0.05.
The result for G9A C40U U51C reads 0.07.
As for G10A A28U G30A U78C, the self-cleavage amounted to 0.15.
In the case of G9A A45G U51A A56G it was 0.08; in that of C11A A13G C29U U58C U72C A75G, 0.03.
For the variant G10A U25C U26C U48C, the self-cleavage amounted to 0.19.
Regarding G10A A13G C29G A47U U54C C79U, the self-cleavage was 0.08.
In the case of G9C A15U C27U U43G C44U U69C it was 0.07; in that of G9C A56G A64G, 0.14.
In the case of G10A U31C A45G, the self-cleavage worked out at 0.13.
In the case of G9C G16C A28U U51A A56U U78A, the self-cleavage is 0.05.
Turning to G10A U25C U49A U67A, the self-cleavage was 0.34.
G9A A56G A77G: the self-cleavage worked out at 0.42.
In the case of G9A U25C U41A A45U A65G U78C, the self-cleavage was 0.04.
As for G9U A28U C32A, the self-cleavage is 0.26.
As to G10A A35G G55A U60A, the self-cleavage came out at 0.06.
On to G9C A35G U78C, for which the self-cleavage was 0.41.
As for G10U A13G U60G U72C, the self-cleavage was 0.06.
Take G10A C34A U41A A57G U67A U72G: the self-cleavage worked out at 0.02.
As for G10A A13U G63U, the self-cleavage was determined as 0.39.
Consider G10A A35G U49G, for which the self-cleavage was 0.24.
In the case of G9U C12U A18G U49C A64G U72G it was 0.02; in that of G9A U25A G30A U76A U78C, 0.06.
In the case of G9U C23U A47G U60C U69A it was 0.11; in that of G9U A13U U41C G52A A57G, 0.17.
G9A C23G U41A U69A: the self-cleavage stood at 0.04.
In the case of G10U C17G A77G it was 0.11.
Regarding C11A A15G C39A A45C A47U U58A U80C, the self-cleavage came out at 0.31.
Regarding C11A A18G A45G U66C U72C U76C, the self-cleavage turned out to be 0.04.
With G10A G19A A21U, the self-cleavage stood at 0.05.
In the case of G9A U25C A28U C38U A47G A56G it was 0.04; in that of G10A U26G A35C U41C, 0.17; in that of G9C A18G A75G, 0.18.
Take G9A G33A A35G U80C: the self-cleavage amounted to 0.32.
Turning to G9U U31A U72C U80C, the self-cleavage was determined as 0.06.
In the case of G9A C27A U31A U48G U54C A56C U76C, the self-cleavage was found to be 0.04.
As to G9U U48C A65U U69A A75U, the self-cleavage amounted to 0.04.
In the case of G9A G22A G55A U80A it was 0.05; in that of G9A A28U U51C A65G, 0.06.
For G10A C14A A18G U48C A56U U60A U78C, the self-cleavage amounted to 0.02.
G9U C27U U72C U74C: the self-cleavage worked out at 0.21.
For the variant G10A A20G A45U U54C U67C, the self-cleavage came to 0.05.
Consider G10U U41G U43C U51C U69A, for which the self-cleavage was 0.14.
For the variant G9C U41G U48C U66C, the self-cleavage was found to be 0.04.
As for G10A U26C U43C U80C, the self-cleavage is 0.4.
Consider G9A A28C U31C A45U A64G, for which the self-cleavage was found to be 0.05.
The result for G9C U51C A56G G61A reads 0.16; that for G9C C11U C12A U26C G30C U60C U69C, 0.04.
Regarding G9U A13G U60C G61C U72A, the self-cleavage is 0.05.
As to G9A C12A A18U U31C U60C U78A, the self-cleavage was 0.03.
For the variant G9A G24A U25G A35G, the self-cleavage was determined as 0.07.
Consider G9A A28G A35G U49A U67C, for which the self-cleavage is 0.09.
Regarding G9A U31A G52A A57G, the self-cleavage was found to be 0.05.
As to G10A A20U A28G U31A A65G, the self-cleavage came to 0.07.
As to G9A G36U A47C U60C, the self-cleavage was found to be 0.25.
On to G9A U25C A28U U31C U49C A65G, for which the self-cleavage came out at 0.06.
As to G10U A15U G22U, the self-cleavage was found to be 0.2.
In the case of G10A A45G U54C U72C, the self-cleavage amounted to 0.08.
Regarding G9U A21U U51A A56G U80C, the self-cleavage turned out to be 0.16.
In the case of G10A C14U U51A U54A, the self-cleavage was found to be 0.07.
Regarding G10A A15U G55A A64U, the self-cleavage was determined as 0.06.
As to G10A A57G U66C, the self-cleavage worked out at 0.33.
For G9U A45G U51A G55A A64G U80C, the self-cleavage amounted to 0.04.
In the case of G9A A28U C40U U66C it was 0.04.
On to G10A A20U U25C U31C U60A, for which the self-cleavage came to 0.14.
With G10A A13U U67A, the self-cleavage came out at 0.43.

Source of the values: the RNAGym collection of RNA variant scans (doi:10.1093/nar/gkz1192).
